# In PubChem BioAssay AID1745853 (National Center for Advancing Translational Sciences (NCATS), 2022):
# The list shows a part of the results. Further columns of the screen follow, without active or inactive calls.
# Legend:
# Experiment in all cases: Primary Screen for Target Class Profiling of Small Molecule Inhibitors of Methyltransferases
# [1] = biological target: Glycine N-methyltransferase (Homo sapiens) (UniProt Q14749); details: purified enzyme, MTase-Glo SAH luminescence; measured here: GNMT inhibition; at 40 µM; stronger effect = lower value
# Procedure, shortened: (§1)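 Each enzyme was reacted with SAM and its substrate, with compounds tested once at 40 uM; SAH formed was read by MTase-Glo luminescence.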
# [2] = biological target: Guanidinoacetate N-methyltransferase (Homo sapiens) (UniProt Q14353); details: purified enzyme, MTase-Glo SAH luminescence; measured here: GAMT inhibition; at 40 µM; stronger effect = lower value
# Procedure, shortened: as §1
# [3] = biological target: Histamine N-methyltransferase (Homo sapiens) (UniProt P50135); details: purified enzyme, MTase-Glo SAH luminescence; measured here: HNMT inhibition; at 40 µM; stronger effect = lower value
# Procedure, shortened: as §1
# [4] = biological target: Nicotinamide N-methyltransferase (Homo sapiens) (UniProt P40261); details: purified enzyme, MTase-Glo SAH luminescence; measured here: NNMT inhibition; at 40 µM; stronger effect = lower value
# Procedure, shortened: as §1
# [5] = biological target: Phenylethanolamine N-methyltransferase (Homo sapiens) (UniProt P11086); details: purified enzyme, MTase-Glo SAH luminescence; measured here: PNMT inhibition; at 40 µM; stronger effect = lower value
# Procedure, shortened: as §1
# % is scaled to controls: 0 for no effect and ±100 for the full control effect.
Structure (SMILES),"activity change, negative = inhibition [1] [%]","activity change, negative = inhibition [2] [%]","activity change, negative = inhibition [3] [%]","activity change, negative = inhibition [4] [%]","activity change, negative = inhibition [5] [%]"
C=C[C@]1(C)C[C@@H](OC(=O)CSC2C[C@H]3CC[C@@H](C2)N3C)[C@]2(C)[C@H](C)CC[C@]3(CCC(=O)[C@H]32)[C@@H](C)[C@@H]1O (stereo not given in full),-6.39,3.15,-17.9,-14.2,1.39
CC1(C(=O)NCc2ccc(F)cc2)Cn2cnc(C(=O)NCCCc3ccccc3)c2C(=O)N1C1CC1 (stereo not given),-13.6,-5,-14.1,-9.93,-10
Cn1c(=O)c2ccc(C(=O)NC3CCCCC3)cc2n2c(SCC(N)=O)nnc12,-0.487,2.4,6.55,6.76,6.74
CCCn1c(=O)c2ccc(C(=O)NC(C)C)cc2n2c(=O)n(CC(=O)Nc3ccc(CC)cc3)nc12,1.76,0.316,2.49,2.52,3.89
COc1ccc(C2c3cccn3-c3sc4c(c3CN2C(=O)NCc2cccc(OC)c2)CCCC4)cc1 (stereo not given),-6.56,3.79,3.38,-2.21,-0.086
CCOC(=O)c1cc2n(n1)CC(C)(C(=O)NC1CCC(C)CC1)N(Cc1cccc(OC)c1)C2=O (stereo not given),1.7,0.759,4.09,-18.3,0.336
CCC(C)NC(=O)c1ccc2c(=O)n(C)c3nnc(SCc4ccc(N5CCCC5=O)cc4)n3c2c1 (stereo not given),3.96,7.44,7.3,3.07,1.08
CC(C)NC(=O)COc1cccc(-c2nc(Nc3ccc4[nH]ncc4c3)c3ccccc3n2)c1,-3.11,18.6,4.88,2.88,3.91
CC1CCCCC1NC(=O)C1(C)Cn2c(cc3sccc32)C(=O)N1CCc1ccccc1 (stereo not given),-0.088,7.64,-0.296,2.01,-3.52
N[C@@H](CC(=O)O)C(=O)O,-5.76,6.4,0.387,-5.67,5.01
c1ccc2cc(-c3nc(C4CCOC4)no3)ncc2c1 (stereo not given),-3.46,2.26,-0.985,-8.63,11.1
NC(=O)NCc1cn(C2CCN(C(=O)C3CCCCCC3)CC2)nn1,-0.923,1.8,1.07,1.69,1.03
Cc1ccc(C2c3cccn3-c3sc4c(c3CN2C(=O)Nc2ccccc2)CCCC4)cc1 (stereo not given),-5.67,-5.98,1.93,-9.85,0.721
CN1C(=O)c2cc(C(=O)NCc3cccnc3)nn2CC1(C)C(=O)NC1CCCC1 (stereo not given),11,2.15,7.89,0.017,5.63
COc1ccccc1NC(=O)Cn1nc2n(CC(C)C)c(=O)c3ccccc3n2c1=O,-0.975,0,5.74,-3.29,0.826
CCCC1c2ccc(C)n2CCN1C(=O)Nc1cccc2c1CCCC2 (stereo not given),-2.25,4.96,-6.23,0.401,-4.32
COc1ccc(NS(=O)(=O)c2cc3c(cc2Cl)n(C)c(=O)n3C)cc1,-6.41,-0.291,-4.41,-0.472,-4.02
O=C(Nc1ccc([C@@H](O)[C@H]2COCC(=O)N2Cc2ccccc2F)cc1)c1ccc2c(c1)OCO2,-4.87,1.34,-0.799,-1.53,-12.3
Fc1ccccc1Nc1ccnc(N2CC3CCC(C2)N3CC(F)(F)F)n1,-4.63,-1.84,-0.429,-12.6,-1.78
CCN(C(=O)Cn1c(=O)oc2cc(S(=O)(=O)N3CCCCC3)ccc21)c1ccccc1,-2.4,3.15,-0.135,1.46,-3.26

Structure (SMILES),"activity change, negative = inhibition [1] [%]","activity change, negative = inhibition [2] [%]","activity change, negative = inhibition [3] [%]","activity change, negative = inhibition [4] [%]","activity change, negative = inhibition [5] [%]"
c1ccc(CN(Cc2ccoc2)[C@@H]2C[C@@H]3CO[C@H](c4ccccc4)C[C@@H]3C2)cc1,-2.7,0.444,1.51,-7.31,-4.09
C/C=C(\C)C(=O)OC[C@H]1O[C@@H](O[C@H]2[C@@H](O[C@H]3O[C@H](CO)[C@@H](O)[C@H](O)[C@H]3O[C@@H]3O[C@H](CO)[C@@H](O)[C@H](O)[C@H]3O)O[C@H](COC(=O)/C(C)=C/C)[C@@H](O)[C@@H]2O)[C@H](O)[C@@H](O)[C@@H]1O,1.52,2.38,5.48,-6.89,2.37
CC(=O)N1CCc2nn(CC(=O)N3CCN(c4ccccc4)CC3)c(=O)cc2C1,-9.13,-11.8,-5.67,-17.9,-27.6
CCCn1c(=O)c2ccc(C(=O)NC(C)C)cc2n2c(SCC(=O)NC(C)C)nnc12,1.24,0,4.79,1.61,3.04
C[C@H]1C(=O)N2c3ccccc3[C@@]3(O)C[C@@H]4C(=O)N[C@](C)(c5nc6ccccc6c(=O)n54)N1[C@@H]23,-6.61,-0.506,8.46,-23.7,-10.6
O=S(=O)(c1cc(F)ccc1F)N1CCCC1c1nncn1Cc1ccncc1 (stereo not given),-4.61,-2.83,-1.56,-6.93,-5.28
COc1ccc(CCC(=O)c2c(O)cc(O)cc2O[C@@H]2O[C@H](CO)[C@@H](O)[C@H](O)[C@H]2O)cc1,-3.73,-4.22,2.81,-14,-9.85
O=C(CCCc1ccc(F)cc1)N[C@@H]1CCOC[C@H]1Oc1ccccn1,0.341,-0.325,-0.268,1.95,-0.907
CCOC(=O)C(Cc1c[nH]c2ccccc12)NC(=O)c1ccc(Br)cc1 (stereo not given),-6.46,2.53,-3.85,-9.34,-4.07
Cc1ccc(NC(=O)CN(C)S(=O)(=O)c2ccc3[nH]c4c(c3c2)CCCC4)c(C)c1,-2.28,4.45,0.8,-2.13,-1.12
CS(=O)(=O)c1ccc([C@@H](O)[C@@H](CF)NC(=O)C(Cl)Cl)cc1,2.87,4.54,7.61,-9.25,2.53
Cc1occc1-c1nc2ncccc2[nH]1,-10.9,-9.47,-5.61,-8.9,-9.22
CC1(C(=O)NCc2ccccc2)Cn2c(nc3ccccc32)C(=O)N1CCc1ccco1 (stereo not given),-5.7,4.63,-1.51,-2.54,-1.21
Cn1nc(NC(=O)C2CCS(=O)(=O)C2)c2c(Oc3cccnc3)cccc21 (stereo not given),0.376,-0.508,1.55,1.5,0.284
Cn1c(=O)c2ccc(C(=O)NC3CCCC3)cc2n2c(=O)n(Cc3ccccc3)nc12,-6.27,-6.13,2.03,-7.24,-4.06
C=C(C(=O)OC)[C@]12O[C@@](C)(CC[C@@]3(O)/C(=C\C)C(=O)O[C@]3(C)C[C@@H]1OC(=O)C(CO)CN1CCCC1C(=O)O)CC2=O (stereo not given in full),-2,-18.4,2.99,-29,-2.5
CCN(CC)CCCNC(=O)CCc1nnc2n(Cc3ccc(Cl)cc3)c(=O)c3ccccc3n12,-5.79,0,-59.1,5.31,2.2
COc1ccc(C(=O)Cn2nc3n(Cc4ccccc4)c(=O)c4ccccc4n3c2=O)cc1,0.855,0.985,5.86,-1.27,-1.43
CCSCCNC(=O)c1c(C)noc1-c1ccc(C(C)(C)C)cc1,-4.4,3.26,1.17,-9.82,12.7
COc1cccc(C2c3cccn3-c3sc4c(c3CN2C(=O)NCc2ccccc2)CCCC4)c1 (stereo not given),1.92,0.118,2.16,-1.69,4.14

Structure (SMILES),"activity change, negative = inhibition [1] [%]","activity change, negative = inhibition [2] [%]","activity change, negative = inhibition [3] [%]","activity change, negative = inhibition [4] [%]","activity change, negative = inhibition [5] [%]"
O=C(Cn1ccc2cc(S(=O)(=O)N3CCCC3)ccc21)NCc1ccccc1,0.897,1.66,0.123,-5.09,-2.82
CCOC(=O)C(CCc1ccccc1)NC(C)C(=O)N1C(=O)N(C)CC1C(=O)O (stereo not given),1.2,,9.15,,
CC1CCCCC1NC(=O)C1(C)Cn2c(cc3sccc32)C(=O)N1Cc1cccc(Cl)c1 (stereo not given),0.58,4.3,-0.198,0.848,0.59
O=C(CSc1nnc2n(Cc3ccc(F)cc3)c(=O)c3ccccc3n12)Nc1cc(F)ccc1F,0.124,1.06,6.78,3.89,0.947
Cn1ncc2cc(-c3cnc(N)c(Cl)c3N3CCC4(CCNC4=O)CC3)ccc21,-9.35,2.42,-19.2,-23.6,1.29
COc1ccc2cc3n(c2c1)CC(C)(C(=O)NC1CCCC1)N(CCCc1ccccc1)C3=O (stereo not given),-6.47,1.06,-8.27,-13.6,-8.12
CCOC(=O)c1cc2n(n1)CC(C)(C(=O)NCc1ccc(C)cc1)N(c1ccc(OCC)cc1)C2=O (stereo not given),4.48,0,9.32,-0.465,3.57
CCCn1c(=O)c2ccc(C(=O)NC(C)CC)cc2n2c(=O)n(Cc3ccc(F)cc3)nc12 (stereo not given),1.37,0,4.79,-0.426,3.76
CNCCNS(=O)(=O)c1cccc2cnccc12,-5.93,8.22,10,-6.35,0.544
O=C(Cn1nc2nc(Nc3ccc(F)cc3)ccn2c1=O)Nc1ccccc1Cl,3.88,0,7.24,3.37,3.73
CC(NC(=O)Cn1ccc2cc(S(=O)(=O)N3CCCCC3)ccc21)c1ccccc1 (stereo not given),7.92,2.1,4,5.34,4.55
COCC1CN(C(=O)Cn2c(=O)oc3ccccc32)CC12CCNCC2 (stereo not given),-3.14,-0.304,1.86,-2.59,-15.2
CCOC(=O)c1cc2n(n1)CC(C)(C(=O)NCCC(C)C)N(c1ccc(C)c(F)c1)C2=O (stereo not given),-4.48,0.547,-3.16,-0.693,-6.56
C/C=C1\[C@H](O[C@@H]2O[C@H](CO)[C@@H](O)[C@H](O)[C@H]2O)OC=C(C(=O)O)[C@H]1CC(=O)OCCc1ccc(O)cc1,6.03,5.68,2.94,-6.78,1.8
CNC(C)C(=O)NC(C(=O)N1CCCC1C(=O)Nc1cccc2ncccc12)C(C)C (stereo not given),3.68,5.92,11.2,-5.83,4.46
CCCc1cc(C(=O)N2CCc3c(nc(-c4cccnc4)[nH]c3=O)C2)n[nH]1,-9.34,-5.28,-2.01,-2.44,-1.34
O=C1NC2(CCN(C(=O)Cc3ccccc3)C2)OCc2ccccc21 (stereo not given),-12.1,-8.34,-4,-13.3,-9.98
COC(=O)N[C@H](C(=O)N1CC2(CC2)C[C@H]1c1ncc(-c2ccc3c(c2)C(F)(F)c2cc(-c4ccc5nc([C@@H]6[C@H]7CC[C@H](C7)N6C(=O)[C@@H](NC(=O)OC)C(C)C)[nH]c5c4)ccc2-3)[nH]1)C(C)C,,0.176,,-28.3,-8.25
